The whole screen tested about 220,000 compounds, of which about 5,700 (2.6%) were called active. This list was built around the results that the source calls inconclusive (neither active nor inactive); the mix of calls is not that of the screen. The call rests on the fitted dose curve; in most records, active means well fitted inhibition curve with a large enough effect; inconclusive means small, poorly fitted or top-dose-only effect; inactive means no such curve, though single readings can be large or run the other way. Where the call is inconclusive, the potency comes from a doubtful curve fit.
Biological target: Lysine-specific demethylase 5B (Homo sapiens) (UniProt Q9UGL1)
Chain of UniProt Q9UGL1 (Q9UGL1 whole entry, looked up): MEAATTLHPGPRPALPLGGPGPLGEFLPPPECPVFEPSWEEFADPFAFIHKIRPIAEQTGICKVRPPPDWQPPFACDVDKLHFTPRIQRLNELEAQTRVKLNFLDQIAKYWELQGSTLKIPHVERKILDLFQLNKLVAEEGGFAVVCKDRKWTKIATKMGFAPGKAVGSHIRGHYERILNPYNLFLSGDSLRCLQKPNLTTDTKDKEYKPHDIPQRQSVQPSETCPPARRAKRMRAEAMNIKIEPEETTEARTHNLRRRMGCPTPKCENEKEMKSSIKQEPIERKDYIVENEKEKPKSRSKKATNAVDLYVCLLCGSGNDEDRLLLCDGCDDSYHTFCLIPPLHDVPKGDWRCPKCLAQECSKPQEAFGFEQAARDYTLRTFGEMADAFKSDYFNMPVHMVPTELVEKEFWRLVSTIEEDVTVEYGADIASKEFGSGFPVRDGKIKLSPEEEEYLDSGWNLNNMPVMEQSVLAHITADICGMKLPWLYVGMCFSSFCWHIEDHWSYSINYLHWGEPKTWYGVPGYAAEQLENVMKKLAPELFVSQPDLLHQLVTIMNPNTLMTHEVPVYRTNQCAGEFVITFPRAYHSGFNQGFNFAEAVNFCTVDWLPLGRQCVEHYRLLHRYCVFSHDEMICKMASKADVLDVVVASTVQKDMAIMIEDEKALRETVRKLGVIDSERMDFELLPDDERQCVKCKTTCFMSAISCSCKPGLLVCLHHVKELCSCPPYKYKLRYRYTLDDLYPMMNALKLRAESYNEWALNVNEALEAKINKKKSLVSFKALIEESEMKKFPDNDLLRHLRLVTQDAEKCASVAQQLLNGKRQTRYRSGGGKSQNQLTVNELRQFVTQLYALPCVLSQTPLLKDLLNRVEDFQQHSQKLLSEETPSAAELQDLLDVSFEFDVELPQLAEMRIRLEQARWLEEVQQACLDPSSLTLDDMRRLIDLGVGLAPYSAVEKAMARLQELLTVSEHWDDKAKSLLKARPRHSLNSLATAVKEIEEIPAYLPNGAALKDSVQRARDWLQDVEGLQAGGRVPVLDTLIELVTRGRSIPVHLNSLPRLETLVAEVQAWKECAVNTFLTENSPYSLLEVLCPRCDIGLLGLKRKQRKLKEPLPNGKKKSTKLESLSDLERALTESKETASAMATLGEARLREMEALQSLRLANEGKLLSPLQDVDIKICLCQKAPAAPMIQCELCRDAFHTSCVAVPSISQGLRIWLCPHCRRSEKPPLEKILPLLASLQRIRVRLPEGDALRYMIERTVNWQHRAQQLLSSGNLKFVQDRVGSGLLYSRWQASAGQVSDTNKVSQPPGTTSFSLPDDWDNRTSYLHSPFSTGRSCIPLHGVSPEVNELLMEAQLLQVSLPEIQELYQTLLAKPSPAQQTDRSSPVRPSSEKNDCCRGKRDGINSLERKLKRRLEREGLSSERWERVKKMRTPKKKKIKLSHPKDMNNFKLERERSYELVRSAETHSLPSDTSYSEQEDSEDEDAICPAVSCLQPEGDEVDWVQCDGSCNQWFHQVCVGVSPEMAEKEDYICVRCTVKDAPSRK
Experiment: Primary screen for KDM5B Histone Demethylases FDH-coupled qHTS; further: nearly all actives have a fitted effect of over 70% in size; on activity change, negative = inhibition: 0% is about no effect
Conditions: FDH-coupled NADH fluorescence (FDH is formaldehyde dehydrogenase); activity change, negative = inhibition: at 57.7 µM (top of the series) unless noted
How it was run: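 Measured: NADH fluorescence change, 30 min, RT. System: KDM5BΔAP 200 nM final, H3K4me3 peptide, α-KG, Fe(II), ascorbate, NAD⁺ plus FDH, pH 7.5 HEPES. Compounds: titrated, 10 min pre-incubation with enzyme.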
Potency means the concentration at half of the fitted maximal effect; tags describe the fitted curve by direction and shape.

SMILES	Potency	activity change, negative = inhibition
CCOc1ccc2oc(=O)cc(CN3CCN(Cc4ccc(F)cc4)CC3)c2c1	inconclusive: 17.8 µM [inhibitor, partial curve, poor fit]	–
Brc1ccc(-c2cc3n(c2)CCc2ccccc2-3)cc1	inconclusive: 28.2 µM [inhibitor, single point]	–
COc1ccc(C(=O)NCC(c2ccc(N(C)C)cc2)N2CCCC2)cc1 (stereo not given)	inconclusive: 17.8 µM [inhibitor, single point]	–
Cc1nc(C)c(C(=O)NCCn2c(C)cnc2-c2cccnc2)s1	inconclusive: 7.08 µM [inhibitor, single point]	–
COc1ccc2cc(S(=O)(=O)c3ccc(C(C)C)cc3)c(=O)oc2c1	inconclusive: 2.24 µM [inhibitor, full curve, poor fit]	–
CC(C)=CC(=O)NC(C)c1cc(C)sc1C (stereo not given)	–	inactive: 12.8%
Cc1cc(C)cc(Nc2nc3ccccc3n3cnnc23)c1	inconclusive: 3.16 µM [inhibitor, full curve, poor fit]	–
COc1ccc(-c2cc(C(C)=O)c(C)n2CCC(=O)Nc2ccc(C)cc2Cl)cc1	inconclusive: 4.47 µM [inhibitor, partial curve, poor fit]	–
N#Cc1ccc(C(=O)Nc2ccc3c(N4CCCCC4)ncnc3c2)cc1	–	inactive: 0.753%
COCCNc1ccc(-c2noc([C@@H]3CCCN3C3CCC3)n2)cn1	–	inactive: -3.43% [at 86.2 µM]
Cc1cc(SCC(=O)c2ccc3c(c2)OCCO3)nc2ccccc12	–	inactive: 10.1%
c1ccc(-c2nn3c(COc4ccc5c(c4)OCO5)nnc3s2)nc1	–	inactive: 3.33%
CCn1c(=O)cc(SCC(=O)NCCc2cccc(C)c2)c2ccccc21	inconclusive: 25.1 µM [inhibitor, partial curve, poor fit]	–
Cn1nc(C(=O)Nc2nc(-c3cc(F)ccc3F)cs2)c2ccccc2c1=O	–	inactive: 10.3%
O=S(=O)(c1ccc2[nH]c3c(c2c1)CCCC3)N1CCN(c2cccc(C(F)(F)F)c2)CC1	inconclusive: 39.8 µM [inhibitor, single point]	–
Cc1ccc2c(C)c(C(=O)N(Cc3cccc(Br)c3)C3CCS(=O)(=O)C3)oc2c1 (stereo not given)	–	inactive: -7.06%
Cc1nc(SC2=CS(=O)(=O)c3ccccc32)oc1C	inconclusive: 35.5 µM [inhibitor, partial curve, poor fit]	–
O=C(CN(Cc1ccco1)C1CC1)NC1CCCC1	–	inactive: 20.4%
COc1ccccc1OCCCCN1CCC(C)CC1	inconclusive: 15.8 µM [inhibitor, partial curve, poor fit]	–
Cc1ccn2c(=O)cc(CSc3ccccc3NS(=O)(=O)c3ccc(C(C)C)cc3)nc2c1	–	inactive: -22.4%
CCCCNC(=O)c1cccc2ncccc12	–	inactive: 16.8%
COc1ccc(CCNC(=O)c2c(C)noc2-c2cccs2)cc1	inconclusive: 25.1 µM [inhibitor, partial curve, poor fit]	–

SMILES	Potency	activity change, negative = inhibition
CN1c2cc(C(=O)Nc3ccc(Oc4ccccc4)cc3)ccc2C(=O)N2CCCCCC21 (stereo not given)	inconclusive: 25.1 µM [inhibitor, partial curve, poor fit]	–
CN(C1CCCCC1)S(=O)(=O)c1ccc(C(=O)Nc2ccc(Cl)c3ncsc23)cc1	inconclusive: 39.8 µM [inhibitor, single point]	–
Cc1cccc2c1-c1sc(C(=O)NCc3ccc(Cl)cc3)cc1CO2	inconclusive: 35.5 µM [inhibitor, partial curve, poor fit]	–
Cn1c(=O)c2c(ncn2CC(=O)Nc2ccc(N3CCCCC3)cc2)n(C)c1=O	–	inactive: 10.4%
CCN(Cc1ccccc1)C(=O)c1cc2c(=O)oc3ccc(C)cc3c2s1	inconclusive: 39.8 µM [inhibitor, single point]	–
Cc1cccc(-c2cccc3c4c([nH]c23)[C@@H]2C[C@H](N(C)C(=O)NC3CCCCC3)[C@H]([C@H](C)O)C(=O)N2CC4)c1	inconclusive: 25.1 µM [inhibitor, partial curve, poor fit]	–
COc1ccc(CCNC(=O)c2cc3c(s2)-c2c(C)cccc2OC3)c(OC)c1	inconclusive: 25.1 µM [inhibitor, partial curve, poor fit]	–
O=C(Cc1c[nH]c2ccccc12)N1CCC(c2nc(CCOCC3CCCC3)no2)C1 (stereo not given)	–	inactive: -19.6%
CCOC(=O)COc1nc(C)c2c(c1C#N)CCCC2	–	inactive: -14.7%
COc1ccc(NC(=O)N2C[C@@H]3C[C@H](C2)c2ccc(NC(=O)Nc4ccccc4)c(=O)n2C3)cc1	inconclusive: 31.6 µM [inhibitor, partial curve, poor fit]	–
Cc1noc2c(NCCN(C)C)cc(-c3ccccn3)nc12	–	inactive: -22.6% [at 86.2 µM]
Cc1ccc(CN2CCCC(C(=O)N3CCN(c4ccccn4)CC3)CCNC(=O)CC2)s1 (stereo not given)	active: 28.2 µM	–
CN(Cc1cccs1)C(=O)c1ccc2ccccc2c1	inconclusive: 15.8 µM [inhibitor, partial curve, poor fit]	–
O[C@@H]1C[C@@H](c2nnc3n2CCN(Cc2ccccc2)C3)N(Cc2cccnc2)C1	inconclusive: 39.8 µM [inhibitor, single point]	–
Clc1ccc(CN2CCC[C@H]2c2nc(-c3ccc(N4CCOCC4)nc3)no2)cc1	active: 35.5 µM	–
CCCNS(=O)(=O)c1cccc(C(=O)Nc2ccc(N3CCCCC3)c3ccncc23)c1	inconclusive: 20 µM [inhibitor, partial curve, poor fit]	–
O=C(c1ccc(CNc2nccc(-c3cccnc3)n2)cc1)N1CCCCC1	active: 28.2 µM	–
COc1ccc(C(=O)N2CCC3(CC2)CCN(Cc2cccs2)c2ccccc2O3)cc1	inconclusive: 14.1 µM [inhibitor, partial curve]	–
O=C(Nc1nc2ccc(S(=O)(=O)N3CCCC3)cc2s1)c1ccc(F)cc1	inconclusive: 35.5 µM [inhibitor, partial curve, poor fit]	–
CC(=O)NNC(=O)c1csc(-c2csc(C)n2)n1	inconclusive: 39.8 µM [inhibitor, partial curve, poor fit]	–
CC1CCCCN1CCCNC(=O)c1ccc2c(c1)sc1nc(-c3ccc(F)cc3)cn12 (stereo not given)	inconclusive: 31.6 µM [inhibitor, partial curve, poor fit]	–
Cc1cc(Nc2ccccc2F)n2nc(Cc3ccccc3)nc2n1	–	inactive: 4.05%

SMILES	Potency	activity change, negative = inhibition
O=c1c(N2CCN(c3cccc(Cl)c3)CC2)csc2ccccc12	inconclusive: 17.8 µM [inhibitor, single point]	–
CCOC(=O)N1CCc2c(sc(NC(=O)C3COc4ccccc4O3)c2C(N)=O)C1 (stereo not given)	inconclusive: 28.2 µM [inhibitor, partial curve, poor fit]	–
Cc1c(-c2ccc(Br)cc2)c(=O)oc2ccc(OS(=O)(=O)c3ccccc3)cc12	inconclusive: 1.78 µM [inhibitor, partial curve, poor fit]	–
CCCc1cc(=O)oc2cc(OCC(=O)NCc3ccncc3)c(Cl)cc12	inconclusive: 2.51 µM [inhibitor, full curve, poor fit]	–
Cc1[nH]n(-c2nc3ccccc3[nH]2)c(=O)c1CCc1ccccc1	inconclusive: 39.8 µM [inhibitor, single point]	–
CCn1c(N2CCN(Cc3ccc(F)cc3)CC2)nc2c1c(=O)[nH]c(=O)n2C	–	inactive: 17.9%
CCOc1ccc(NC(=O)[C@H]2O[C@@H]3OC(C)(C)O[C@@H]3[C@H]3OC(C)(C)O[C@H]32)cc1	inconclusive: 31.6 µM [inhibitor, partial curve, poor fit]	–
CN(C)[S+](=O)([O-])c1ccc2c(c1)OCCN(Cc1ccc(Cl)cn1)C2	inconclusive: 44.7 µM [inhibitor, partial curve, poor fit]	–
CCOc1ccccc1CNC(=O)c1cn(-c2ccc(OC)cc2)c(=O)c2ccccc12	inconclusive: 15.8 µM [inhibitor, partial curve, poor fit]	–
Cc1nc2cc(NC(=O)c3ccc(CNC(N)=O)cc3)ccc2o1	–	inactive: -12.8%
CCn1c2c(c(=O)n1Cc1ccccc1)CCN(C(=O)COc1ccccc1)C2	–	inactive: -5.47% [at 86.2 µM]
CNC(=O)CCn1ncc2cc(OCc3ccccc3-c3ccc(OC)cc3)ccc21	active: 31.6 µM	–
Nc1cc(=O)[nH]c(SCc2cccc(Br)c2)n1	–	inactive: 8.47%
OCCc1ccc(Nc2cnc3ccc(-c4ccc(F)cc4)nn23)cc1	inconclusive: 35.5 µM [inhibitor, partial curve, poor fit]	–
COCCn1cc2c3c(cccc31)CN(C(=O)CCc1ccccc1OC)CC2	inconclusive: 17.8 µM [inhibitor, partial curve]	–
COc1ccc(OCC(=O)Nc2ccc3c(c2)nc(CCNC(=O)c2ccco2)n3C)cc1	inconclusive: 25.1 µM [inhibitor, partial curve, poor fit]	–
CC(C)NC(=O)c1ccc(-n2c(-c3ccccc3)cc3c2CCCC3)cc1	inconclusive: 15.8 µM [inhibitor, partial curve, poor fit]	–
O=C1COc2ccc(Nc3ccc(C(F)(F)F)cc3)nc2CN1	inconclusive: 22.4 µM [inhibitor, partial curve, poor fit]	–
O=C(Nc1ccc(Br)cc1)c1ccc(F)c(S(=O)(=O)N2CCCc3ccccc32)c1	inconclusive: 31.6 µM [inhibitor, partial curve, poor fit]	–
N#Cc1nc(-c2ccccc2)oc1N1CCN(c2ccccc2)CC1	inconclusive: 28.2 µM [inhibitor, partial curve, poor fit]	–
Cc1cc(Cn2cc3c4c(cccc42)[C@H](CC(C)C)N[C@H](C(=O)O)C3)no1	inconclusive: 35.5 µM [inhibitor, partial curve]	–
